± gives the standard deviation of the averaged measurements. Laboratory Escherichia coli strains with one amino-acid change in an essential protein, pooled on minimal glucose agar with carbenicillin or gentamicin at twice the control MIC (plus kanamycin and chloramphenicol for the plasmids), 48 h. Fold change of barcode share against drug-free plates; higher = less susceptible. Active = above 20 in both replicates (the paper's putatively resistant). '<' = one read or none on drug, '>' = one read or none on a drug-free plate. Shares are relative, so most strains fall below 1 when a few take over. Listed are strains with at least 15 reads on both drug-free plates, and hits; most hits rest on fewer reference reads. Replicate rank correlation about 0.5. Edits are read from barcodes.
B1: secY I150A (protein)
chain: MAKQPGLDFQSAKGGLGELKRRLLFVIGALIVFRIGSFIPIPGIDAAVLAKLLEQQRGTIIEMFNMFSGGALSRASIFALGIMPYISASIIIQLLTVVHPTLAEIKKEGESGRRKISQYTRYGTLVLAIFQSIGIATGLPNMPGMQGLVANPGFAFYFTAVVSLVTGTMFLMWLGEQITERGIGNGISIIIFAGIVAGLPPAIAHTIEQARQGDLHFLVLLLVAVLVFAVTFFVVFVERGQRRIVVNYAKRQQGRRVYAAQSTHLPLKVNMAGVIPAIFASSIILFPATIASWFGGGTGWNWLTTISLYLQPGQPLYVLLYASAIIFFCFFYTALVFNPRETADNLKKSGAFVPGIRPGEQTAKYIDKVMTRLTLVGALYITFICLIPEFMRDAMKVPFYFGGTSLLIVVVVIMDFMAQVQTLMMSSQYESALKKANLKGYGR
B2: secY L285Q (protein)
chain: MAKQPGLDFQSAKGGLGELKRRLLFVIGALIVFRIGSFIPIPGIDAAVLAKLLEQQRGTIIEMFNMFSGGALSRASIFALGIMPYISASIIIQLLTVVHPTLAEIKKEGESGRRKISQYTRYGTLVLAIFQSIGIATGLPNMPGMQGLVINPGFAFYFTAVVSLVTGTMFLMWLGEQITERGIGNGISIIIFAGIVAGLPPAIAHTIEQARQGDLHFLVLLLVAVLVFAVTFFVVFVERGQRRIVVNYAKRQQGRRVYAAQSTHLPLKVNMAGVIPAIFASSIIQFPATIASWFGGGTGWNWLTTISLYLQPGQPLYVLLYASAIIFFCFFYTALVFNPRETADNLKKSGAFVPGIRPGEQTAKYIDKVMTRLTLVGALYITFICLIPEFMRDAMKVPFYFGGTSLLIVVVVIMDFMAQVQTLMMSSQYESALKKANLKGYGR
B3: secY I150Q (protein)
chain: MAKQPGLDFQSAKGGLGELKRRLLFVIGALIVFRIGSFIPIPGIDAAVLAKLLEQQRGTIIEMFNMFSGGALSRASIFALGIMPYISASIIIQLLTVVHPTLAEIKKEGESGRRKISQYTRYGTLVLAIFQSIGIATGLPNMPGMQGLVQNPGFAFYFTAVVSLVTGTMFLMWLGEQITERGIGNGISIIIFAGIVAGLPPAIAHTIEQARQGDLHFLVLLLVAVLVFAVTFFVVFVERGQRRIVVNYAKRQQGRRVYAAQSTHLPLKVNMAGVIPAIFASSIILFPATIASWFGGGTGWNWLTTISLYLQPGQPLYVLLYASAIIFFCFFYTALVFNPRETADNLKKSGAFVPGIRPGEQTAKYIDKVMTRLTLVGALYITFICLIPEFMRDAMKVPFYFGGTSLLIVVVVIMDFMAQVQTLMMSSQYESALKKANLKGYGR
B4: secY I150W (protein)
chain: MAKQPGLDFQSAKGGLGELKRRLLFVIGALIVFRIGSFIPIPGIDAAVLAKLLEQQRGTIIEMFNMFSGGALSRASIFALGIMPYISASIIIQLLTVVHPTLAEIKKEGESGRRKISQYTRYGTLVLAIFQSIGIATGLPNMPGMQGLVWNPGFAFYFTAVVSLVTGTMFLMWLGEQITERGIGNGISIIIFAGIVAGLPPAIAHTIEQARQGDLHFLVLLLVAVLVFAVTFFVVFVERGQRRIVVNYAKRQQGRRVYAAQSTHLPLKVNMAGVIPAIFASSIILFPATIASWFGGGTGWNWLTTISLYLQPGQPLYVLLYASAIIFFCFFYTALVFNPRETADNLKKSGAFVPGIRPGEQTAKYIDKVMTRLTLVGALYITFICLIPEFMRDAMKVPFYFGGTSLLIVVVVIMDFMAQVQTLMMSSQYESALKKANLKGYGR
B5: secY F158W (protein)
chain: MAKQPGLDFQSAKGGLGELKRRLLFVIGALIVFRIGSFIPIPGIDAAVLAKLLEQQRGTIIEMFNMFSGGALSRASIFALGIMPYISASIIIQLLTVVHPTLAEIKKEGESGRRKISQYTRYGTLVLAIFQSIGIATGLPNMPGMQGLVINPGFAFYWTAVVSLVTGTMFLMWLGEQITERGIGNGISIIIFAGIVAGLPPAIAHTIEQARQGDLHFLVLLLVAVLVFAVTFFVVFVERGQRRIVVNYAKRQQGRRVYAAQSTHLPLKVNMAGVIPAIFASSIILFPATIASWFGGGTGWNWLTTISLYLQPGQPLYVLLYASAIIFFCFFYTALVFNPRETADNLKKSGAFVPGIRPGEQTAKYIDKVMTRLTLVGALYITFICLIPEFMRDAMKVPFYFGGTSLLIVVVVIMDFMAQVQTLMMSSQYESALKKANLKGYGR
B6: secY I150P (protein)
chain: MAKQPGLDFQSAKGGLGELKRRLLFVIGALIVFRIGSFIPIPGIDAAVLAKLLEQQRGTIIEMFNMFSGGALSRASIFALGIMPYISASIIIQLLTVVHPTLAEIKKEGESGRRKISQYTRYGTLVLAIFQSIGIATGLPNMPGMQGLVPNPGFAFYFTAVVSLVTGTMFLMWLGEQITERGIGNGISIIIFAGIVAGLPPAIAHTIEQARQGDLHFLVLLLVAVLVFAVTFFVVFVERGQRRIVVNYAKRQQGRRVYAAQSTHLPLKVNMAGVIPAIFASSIILFPATIASWFGGGTGWNWLTTISLYLQPGQPLYVLLYASAIIFFCFFYTALVFNPRETADNLKKSGAFVPGIRPGEQTAKYIDKVMTRLTLVGALYITFICLIPEFMRDAMKVPFYFGGTSLLIVVVVIMDFMAQVQTLMMSSQYESALKKANLKGYGR
B7: secY I150D (protein)
chain: MAKQPGLDFQSAKGGLGELKRRLLFVIGALIVFRIGSFIPIPGIDAAVLAKLLEQQRGTIIEMFNMFSGGALSRASIFALGIMPYISASIIIQLLTVVHPTLAEIKKEGESGRRKISQYTRYGTLVLAIFQSIGIATGLPNMPGMQGLVDNPGFAFYFTAVVSLVTGTMFLMWLGEQITERGIGNGISIIIFAGIVAGLPPAIAHTIEQARQGDLHFLVLLLVAVLVFAVTFFVVFVERGQRRIVVNYAKRQQGRRVYAAQSTHLPLKVNMAGVIPAIFASSIILFPATIASWFGGGTGWNWLTTISLYLQPGQPLYVLLYASAIIFFCFFYTALVFNPRETADNLKKSGAFVPGIRPGEQTAKYIDKVMTRLTLVGALYITFICLIPEFMRDAMKVPFYFGGTSLLIVVVVIMDFMAQVQTLMMSSQYESALKKANLKGYGR
B8: secY L285A (protein)
chain: MAKQPGLDFQSAKGGLGELKRRLLFVIGALIVFRIGSFIPIPGIDAAVLAKLLEQQRGTIIEMFNMFSGGALSRASIFALGIMPYISASIIIQLLTVVHPTLAEIKKEGESGRRKISQYTRYGTLVLAIFQSIGIATGLPNMPGMQGLVINPGFAFYFTAVVSLVTGTMFLMWLGEQITERGIGNGISIIIFAGIVAGLPPAIAHTIEQARQGDLHFLVLLLVAVLVFAVTFFVVFVERGQRRIVVNYAKRQQGRRVYAAQSTHLPLKVNMAGVIPAIFASSIIAFPATIASWFGGGTGWNWLTTISLYLQPGQPLYVLLYASAIIFFCFFYTALVFNPRETADNLKKSGAFVPGIRPGEQTAKYIDKVMTRLTLVGALYITFICLIPEFMRDAMKVPFYFGGTSLLIVVVVIMDFMAQVQTLMMSSQYESALKKANLKGYGR
B9: secY F158Q (protein)
chain: MAKQPGLDFQSAKGGLGELKRRLLFVIGALIVFRIGSFIPIPGIDAAVLAKLLEQQRGTIIEMFNMFSGGALSRASIFALGIMPYISASIIIQLLTVVHPTLAEIKKEGESGRRKISQYTRYGTLVLAIFQSIGIATGLPNMPGMQGLVINPGFAFYQTAVVSLVTGTMFLMWLGEQITERGIGNGISIIIFAGIVAGLPPAIAHTIEQARQGDLHFLVLLLVAVLVFAVTFFVVFVERGQRRIVVNYAKRQQGRRVYAAQSTHLPLKVNMAGVIPAIFASSIILFPATIASWFGGGTGWNWLTTISLYLQPGQPLYVLLYASAIIFFCFFYTALVFNPRETADNLKKSGAFVPGIRPGEQTAKYIDKVMTRLTLVGALYITFICLIPEFMRDAMKVPFYFGGTSLLIVVVVIMDFMAQVQTLMMSSQYESALKKANLKGYGR
B10: secY L285W (protein)
chain: MAKQPGLDFQSAKGGLGELKRRLLFVIGALIVFRIGSFIPIPGIDAAVLAKLLEQQRGTIIEMFNMFSGGALSRASIFALGIMPYISASIIIQLLTVVHPTLAEIKKEGESGRRKISQYTRYGTLVLAIFQSIGIATGLPNMPGMQGLVINPGFAFYFTAVVSLVTGTMFLMWLGEQITERGIGNGISIIIFAGIVAGLPPAIAHTIEQARQGDLHFLVLLLVAVLVFAVTFFVVFVERGQRRIVVNYAKRQQGRRVYAAQSTHLPLKVNMAGVIPAIFASSIIWFPATIASWFGGGTGWNWLTTISLYLQPGQPLYVLLYASAIIFFCFFYTALVFNPRETADNLKKSGAFVPGIRPGEQTAKYIDKVMTRLTLVGALYITFICLIPEFMRDAMKVPFYFGGTSLLIVVVVIMDFMAQVQTLMMSSQYESALKKANLKGYGR
B11: accD V110P (protein)
chain: MSWIERIKSNITPTRKASIPEGVWTKCDSCGQVLYRAELERNLEVCPKCDHHMRMTARNRLHSLLDEGSLVELGSELEPKDVLKFRDSKKYKDRLASAQKETGEKDALVPMKGTLYGMPVVAAAFEFAFMGGSMGSVVGARFVRAVEQALEDNCPLICFSASGGARMQEALMSLMQMAKTSAALAKMQERGLPYISVLTDPTMGGVSASFAMLGDLNIAEPKALIGFAGPRVIEQTVREKLPPGFQRSEFLIEKGAIDMIVRRPEMRLKLASILAKLMNLPAPNPEAPREGVVVPPVPDQEPEA

Biological target: Escherichia coli (laboratory strain)
Experiment: barcode share on antibiotic plates over drug-free plates; higher = less susceptible
Conditions: antibiotic: carbenicillin; 2× MIC (3.1 µg/mL)
Description: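 A pool of E. coli strains, each edited to carry one amino-acid change in an essential protein, was grown for 48 h on minimal glucose agar with or without antibiotic; strain barcodes were sequenced; mean of two replicates.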

**Q.** B1 was tested. Which “fold change of barcode share” value did it give?
**A.** The value was 0.303 ± 0.043.

**Q.** Which “fold change of barcode share” value does the source give for B2 here?
**A.** Its value is 0.287 ± 0.015.

**Q.** How did the “fold change of barcode share” value turn out when B3 was run?
**A.** Its value is 0.218 ± 0.098.

**Q.** With B4 as the protein, how does the “fold change of barcode share” value read?
**A.** Its value is 0.285 ± 0.053.

**Q.** For B5, which “fold change of barcode share” value is on record?
**A.** Its value is 0.298 ± 0.15.

**Q.** Which “fold change of barcode share” value does the source give for B6 here?
**A.** The value was 0.415 ± 0.22.

**Q.** For B7, which “fold change of barcode share” value is on record?
**A.** The value was 0.262 ± 0.16.

**Q.** With B8 as the protein, how does the “fold change of barcode share” value read?
**A.** Its value is 0.305 ± 0.11.

**Q.** Which “fold change of barcode share” value does the source give for B9 here?
**A.** Its value is 0.232 ± 0.049.

**Q.** With B10 as the protein, how does the “fold change of barcode share” value read?
**A.** Its value is 0.261 ± 0.09.

**Q.** B11 was tested. Which “fold change of barcode share” value did it give?
**A.** The value was 0.404 ± 0.15.

Same assay, conditions: antibiotic: gentamicin; 2× MIC (MIC 0.45 µg/mL)

**Q.** How did the “fold change of barcode share” value turn out when B1 was run?
**A.** Its value is less than 0.00413.

**Q.** With B2 as the protein, how does the “fold change of barcode share” value read?
**A.** Its value is 0.0604 ± 0.08.

**Q.** B3 was tested. Which “fold change of barcode share” value did it give?
**A.** The value was 0.00551 ± 0.00017.

**Q.** Which “fold change of barcode share” value does the source give for B4 here?
**A.** Its value is 0.00526 ± 0.0011.

**Q.** How did the “fold change of barcode share” value turn out when B5 was run?
**A.** The value was less than 0.0127.

**Q.** With B6 as the protein, how does the “fold change of barcode share” value read?
**A.** The value was less than 0.00372.

**Q.** How did the “fold change of barcode share” value turn out when B7 was run?
**A.** The value was less than 0.0076.

**Q.** With B8 as the protein, how does the “fold change of barcode share” value read?
**A.** Its value is 0.00644 ± 0.0045.

**Q.** With B10 as the protein, how does the “fold change of barcode share” value read?
**A.** The value was 0.00806 ± 0.0003.

**Q.** How did the “fold change of barcode share” value turn out when B11 was run?
**A.** The value was less than 0.00738.

— the supplement of paper PMC11876631
